# Results as given in PubChem BioAssay AID624296 (National Center for Advancing Translational Sciences (NCATS), 2012).
# Several values for one entry are separate records, joined by “and”; a condition that tells them apart may be missing. Identical values can stand only once. The campaign covered roughly 350,000 compounds. About 9,900 (2.8%) were called active. The shares of active, inactive and inconclusive entries below differ from those in the screen. The call rests on the fitted dose curve; in most records, active means well fitted activation curve with a large enough effect; inconclusive means small, poorly fitted or top-dose-only effect; inactive means no such curve, though single readings can be large or run the other way. Potencies of inconclusive entries are doubtful fits and often do not repeat.
# Assay: A quantitative high throughput screen for small molecules that induce DNA re-replication in MCF 10a normal breast cells. Further: nearly all actives have a fitted effect of over 50% in size. On activity, positive = re-replication: % of control where 0% means no effect.
# Settings: MCF 10A DNA re-replication, Hoechst nuclear intensity, 48 h; activity, positive = re-replication: at 46.1 µM (top of the series)
# Potency means the concentration at half of the fitted maximal effect; tags describe the fitted curve by direction and shape.
Structure (SMILES),"activity, positive = re-replication",Potency
Cc1nn(Cc2ccccc2)c(C)c1C(=O)OCC(=O)NCc1ccco1,inactive: -1.92%,
CCn1ccnc1CN1CCCC(C(=O)c2ccc(OC)cc2OC)C1 (centres undefined),inactive: 6.65%,
COc1ccc(NC(=O)c2cn(CCC#N)nc2-c2ccc([N+](=O)[O-])cc2)cc1,,"inconclusive: 11.6 µM [activator, partial curve]"
COc1cc2c(c(OC)c1O)-c1ccc(OC)c(=O)cc1C(NC(=O)C(F)(F)F)CC2 (centres undefined),,"inconclusive: 0.116 µM [activator, full curve, poor fit]"
COc1ccc(S(=O)(=O)N2c3ccc(F)cc3CCC2C)cc1 (centres undefined),,active: 0.92 µM
Cc1nn(CCC#N)c2c1P(=S)(N1CCCC1)OC(c1ccc(F)cc1)=N2 (centres undefined),,"inconclusive: 23.1 µM [activator, single point]"
CC(C)CNC(=O)c1c(N)n(Cc2ccc3c(c2)OCO3)c2nc3ccccc3nc12,,"inconclusive: 2.59 µM [activator, full curve, poor fit]"
Cc1ccc(C)c(-n2c(C)nc3ccccc3c2=O)c1,inactive: 8.4%,
O=C(O)CSCC(=O)N(Cc1ccccc1)c1nc(-c2ccccc2)c(-c2ccccc2)s1,,"inconclusive: 5.8 µM [activator, single point]"
CCCOc1ccccc1NP(=O)(Oc1ccccc1)Oc1ccccc1,inactive: 0.516%,
C[C@]12CC[C@H](O)CC1=C([N+](=O)[O-])CC1C2CC[C@@]2(C)C1CC[C@@H]2O (some centres undefined),inactive: -1.74%,
O=C1NC(=O)N(c2ccc(F)cc2)C(=O)/C1=C/c1ccsc1,,"inconclusive: 6.51 µM [activator, single point]"
COc1cccc(C2CC3C(=O)C=CC2N3Cc2ccccc2)c1 (centres undefined),,"inconclusive: 29.1 µM [activator, single point]"
CCOP(=O)(OCC)C(C)(C)NC(=O)C(Cl)(Cl)Cl,inactive: 734% [at 0.0737 µM],
O=C(Nc1ccc(C(F)(F)F)cc1)OC1CN2CCC1CC2 (centres undefined),,"inconclusive: 0.58 µM [activator, full curve, poor fit]"
CCOC(=O)c1ccccc1C(=O)OCC,,inactive
Cc1cc(OC(=O)c2ccco2)c2c3c(c(=O)oc2c1)CCCC3,,"inconclusive: 14.6 µM [activator, partial curve, poor fit]"
CN1C(=O)C(=Cc2ccccc2OCc2ccccc2Cl)C(=O)N(C)C1=O,,"inconclusive: 9.2 µM [activator, partial curve]"
O=C1CN=C(c2ccc(Br)cc2)c2oc3ccccc3c2N1,,"inconclusive: 16.4 µM [activator, single point]"
COc1ccc(CN2C(=O)NC(=O)/C(=C/c3ccc(OC)c(OC)c3OC)C2=O)cc1,,"inconclusive: 0.461 µM [activator, full curve, poor fit]"
COc1ccc(C(=O)C2CCCN(Cc3ccc(C)s3)C2)c(OC)c1 (centres undefined),inactive: -0.0644%,
CCN(C(=O)CSc1ncccc1C(=O)Oc1cccc([N+](=O)[O-])c1)c1cccc(C)c1,,"inconclusive: 23.1 µM [activator, partial curve, poor fit]"
CCC(C)n1c(O)c(C=NCCc2ccccc2)c(=O)[nH]c1=S (centres undefined),,"inconclusive: 25.9 µM [activator, single point]"

Structure (SMILES),"activity, positive = re-replication",Potency
COc1ccccc1-n1c(/C=C/c2ccc(O)cc2)nc2ccccc2c1=O,,"inconclusive: 23.1 µM [activator, single point]"
CC(C)=CCN1CC[C@@]2(C)c3cc(O)ccc3C[C@@H]1C2C (some centres undefined),inactive: 5.27%,
O=C(Cc1ccc(Br)cc1)N1CCN(Cc2ccccc2)CC1,,"inconclusive: 35.5 µM [activator, single point]"
O=C1NC2C(=CC(O)C(O)C2O)c2cc3c(cc21)OCO3 (centres undefined),,"inconclusive: 0.731 µM [activator, full curve]"
O=C(NC1CCCCC1)Oc1cc2oc(=O)sc2cc1Cl,,"inconclusive: 20.6 µM [activator, single point]"
Cc1cc(Br)c(NC(=O)CN2CC=C(c3ccccc3)CC2)c(Br)c1,,"inconclusive: 32.6 µM [activator, partial curve, poor fit]"
CCn1c(=O)cc(SCC(=O)N2CCC3(CC2)OCCO3)c2ccccc21,inactive: -23.5%,
O=[N+]([O-])c1oc2ccc3ccccc3c2c1CCO,,active: 5.17 µM
CCOC(=O)c1c(N)n(CCCOC(=O)c2ccco2)c2nc3ccccc3nc12,,"inconclusive: 29.1 µM [activator, single point]"
O=C(OC1CC2CCC(N2)C1C(=O)O)c1ccccc1 (centres undefined),,"inconclusive: 0.231 µM [activator, full curve, poor fit]"
COC(=O)C1=C(c2ccc3ccccc3c2)C[C@@H]2CC[C@H]1N2C(=O)N1CCOCC1,,"inconclusive: 0.184 µM [activator, full curve, poor fit]"
O=C(/C=C/c1cccs1)c1cc(Cl)ccc1OC(=O)N1CCOCC1,,"inconclusive: 15.8 µM [activator, single point]"
CC/C(=N\Nc1ccccc1)c1c(O)[nH]c(=O)[nH]c1=O,inactive: 16.7%,
Nc1ccc2ccc3cccc[n+]3c2c1,inactive: 1.24%,
O=C1NC(=O)N(CCc2ccc(F)cc2)C(=O)/C1=C\C=C\c1ccccc1,,active: 4.11 µM
O=[N+]([O-])c1ccc(C2[C@H]3C(c4ccccc4)=NC4(CCCC4)N23)cc1 (some centres undefined),inactive: 3.77%,
Cc1ccc(OP(=O)(Nc2cccc(C)c2)Oc2ccc(C)cc2)cc1,inactive: 27.1%,
Oc1cc[c]([Hg][Cl])cc1,,active: 1.06 µM
O=c1[nH]c(=S)[nH]c(O)c1/C=C1\C=Nc2ccccc21,,"inconclusive: 23.1 µM [activator, single point]"
CC(C)(C#N)Nc1ccccc1,,"inconclusive: 9.2 µM [activator, partial curve, poor fit]"
COc1ccc(F)cc1CN1CCN(C(=O)CCC(=O)Nc2nnc(CC(C)C)s2)CC1,,active: 18.4 µM
Nc1c(C(=O)NCc2ccco2)c2nc3ccccc3nc2n1CCN1CCOCC1,,active: 16.4 µM
C[C@]12CC[C@H]3[C@@H](CC[C@]4(O)C[C@@H](O)CC[C@]34C=O)[C@@]1(O)CC[C@@H]2C1=CC(=O)OC1,,"inconclusive: 0.326 µM [activator, full curve, poor fit]"

Structure (SMILES),"activity, positive = re-replication",Potency
COC(=O)C1=C(c2ccc(-c3ccccc3)c(F)c2)C[C@@H]2CC[C@H]1N2C(=O)NCc1cc(C)oc1C(F)(F)F,,"inconclusive: 23.1 µM [activator, partial curve, poor fit]"
S=C(S)N1CCCC1,,"inconclusive: 0.13 µM [activator, full curve, poor fit]"
CNC(=O)OCc1n(C)cc[n+]1C,inactive: -0.715%,
O=c1c2ccccc2nc(/C=C/c2ccc(F)cc2)n1-c1ccccc1O,,"inconclusive: 20.6 µM [activator, single point]"
NC(N)=NC(=O)c1nc(Cl)c(N)nc1N,,"inconclusive: 2.59 µM [activator, partial curve, poor fit]"
O=C1C(I)=CC(=C(c2cc(I)c(O)c(I)c2)c2ccccc2C(=O)O)C=C1I,,"inconclusive: 5.31 µM [activator, full curve, poor fit]"
C[C@H]1C[C@@H](C)C(=O)[C@@H]([C@H](O)CC2CC(=O)NC(=O)C2)C1,,active: 4.61 µM
Cc1cc(=O)oc2c1c(C)nn2-c1nn[nH]n1,,"inconclusive: 16.4 µM [activator, partial curve, poor fit]"
Cc1c(C(=O)NCCC2=CCCCC2)oc2ccc(S(=O)(=O)N3CCC4(CC3)OCCO4)cc12,,"inconclusive: 18.4 µM [activator, partial curve, poor fit]"
CCC(C)c1ccc(N2C(=O)NC(=O)/C(=C/c3cccn3CCOc3ccc(C)cc3)C2=O)cc1 (centres undefined),,active: 20.6 µM
Oc1ccc(Cl)cc1Sc1cc(Cl)ccc1O,,"inconclusive: 7.5 µM [activator, full curve] and inconclusive: 29.1 µM [activator, single point]"
Cc1ccc(OP2(=O)Nc3cc(C)c(C)cc3S2)cc1 (centres undefined),inactive: 14.4%,
COc1cc(Br)cc(CN2CCN(C)CC2)c1O,inactive: 11.1%,
O=C(c1ccc2c3c(cccc13)CC2)C1CCCN(Cc2ncc[nH]2)C1 (centres undefined),,"inconclusive: 29.1 µM [activator, single point]"
C=CCn1c(O)c(C(CC)=NCc2cc(OC)cc(OC)c2)c(=O)[nH]c1=O,,"inconclusive: 18.4 µM [activator, partial curve, poor fit]"
Cc1ccc(N2CCN(C(=O)c3cn(CC4CCCCC4)nn3)C(C)C2)cc1 (centres undefined),,active: 20.6 µM
CCCC1(CCC)C(=O)NC(=NCc2ccccc2)NC1=O,,"inconclusive: 29.1 µM [activator, single point]"
Cc1noc(C)c1CSCC(=O)Nc1ccc(C#N)c(Cl)c1,inactive: 4.96%,
CN1c2ccc([N+](=O)[O-])cc2CC2(C(=O)NC(=O)N(c3ccc(Br)cc3)C2=O)C1c1ccccc1 (centres undefined),inactive: -0.493%,
CC[C@H]1CC2CN3CCc4c([nH]c5cc(OC)ccc45)[C@](C(=O)OC)(C2)[C@H]13,,"inconclusive: 20.6 µM [activator, partial curve, poor fit]"
O=C(CCn1c(=O)oc2ccccc21)N1CCN(C(c2ccccc2)c2ccccc2)CC1,,"inconclusive: 20.6 µM [activator, partial curve, poor fit]"
CCN(c1ccc(C)cc1C)S(=O)(=O)c1nnc(NC(=O)c2ccco2)s1,,active: 20.6 µM
COc1cc(O)c(C(=O)O)c(-c2cc(O)c(O)cc2C)c1,,"inconclusive: 9.2 µM [activator, single point]"
